Laboratory results published in PubChem BioAssay AID1508623 (National Center for Advancing Translational Sciences (NCATS), 2021).
The campaign covered roughly 48,000 compounds. About 450 (0.94%) were called active. About 19% were inconclusive and are not listed. The call rests on the fitted dose curve; in most records, active means well fitted inhibition curve with a large enough effect; inconclusive means small, poorly fitted or top-dose-only effect; inactive means no such curve, though single readings can be large or run the other way. The list shows a part of the results.

assay: Primary qHTS for Identification of Small Molecule Inhibitors of Huntingtin Promoter Activity; details: HEK293 HTT promoter firefly luciferase reporter (activity 0% = vehicle and -100% = no light), 24 h; series mostly up to 57.5 µM; activity change, negative = inhibition: at the top concentration; further: nearly all actives have a fitted effect of over 50% in size
In short: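 Firefly luciferase signal from promoter-reporter HEK293 cells was scaled between vehicle (0%) and zero RLU (-100%). Compounds were tested at final concentrations of up to 57.5 uM over 24 h at 37 degrees C. PTC124 at 50 uM final served as control inhibitor.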
Potency means the concentration at half of the fitted maximal effect.

| SMILES | activity change, negative = inhibition | Potency |
| --- | --- | --- |
| COCCc1ccc(OCC(O)CNC(C)C)cc1 (configuration not stated) | inactive: 11.9% | – |
| CCc1cccc(CC)c1NC(=O)CN(C)S(=O)(=O)c1ccc2c(c1)n(C)c(=O)c(=O)n2C | inactive: -18.7% | – |
| COc1cccc(CNC(=O)C2CCCN(c3nnc(-n4c(C)ccc4C)s3)C2)c1OC (configuration not stated) | inactive: -20% | – |
| O=C(Nc1ccc(OC(F)(F)F)cc1)c1cc(-c2ccc(Cl)cc2)on1 | inactive: -1.33% | – |
| Cc1ccc2nc(COc3ccccc3NC(=O)Nc3ccc(F)c(Cl)c3)cc(=O)n2c1 | inactive: 13% | – |
| CCSc1nc(-c2ccc(OC)cc2)nc2c1Cc1c(CO)cnc(C)c1O2 | inactive: -11.4% | – |
| Cc1cccc(NC(=O)CSc2cn(CC(=O)N3CCOCC3)c3ccccc23)c1C | inactive: 2.99% | – |
| Cc1ccc(-n2c3nc(=O)n(C)c(=O)c-3cc3ccccc32)c(C)c1 | inactive: -17.3% | – |
| CCC(=O)N1CCc2cc(Br)cc(S(=O)(=O)N3CCCC(C(=O)NCc4ccc(C)cc4)C3)c21 (configuration not stated) | inactive: -9.29% | – |
| COc1cccc2cc(-c3nc4sc5c(c4c(=O)[nH]3)CCC(C(C)(C)C)C5)c(=O)oc12 (configuration not stated) | inactive: 2.55% | – |
| COc1ccc(/C=C/c2nc(C#N)c(N3CCCCC3)o2)cc1OC | inactive: -18.1% | – |
| CCc1ccc(NC(=O)Cn2ncn3c(cc4ccccc43)c2=O)cc1 | inactive: -0.944% | – |
| Cc1cc2c(cc1S(=O)(=O)NCc1ccc(F)cc1)OCCN2C | inactive: -2.43% | – |
| CCCCN(Cc1cc2cc(C)ccc2[nH]c1=O)C(=O)c1cccc(Cl)c1 | inactive: -20.8% | – |
| Cc1ccc(-n2ncc(C(=O)NCc3ccco3)c2C2CCN(C(=O)OC(C)(C)C)CC2)cc1 | inactive: -18.1% | – |
| CNC(=O)C1CCC(Cn2c(=O)c3sccc3n(CC(=O)N3CCC(C)CC3)c2=O)CC1 (configuration not stated) | inactive: -7.63% | – |
| Cc1ccc2nc(Cl)c3cc(C(=O)N4CCCCC4)sc3c2c1 | inactive: 5.47% | – |
| COC(=O)c1cc(S(=O)(=O)NCC2CCN(Cc3cccc(F)c3)CC2)cn1C | inactive: -24.6% | – |
| Cn1c(=O)c2c(-c3ccc(Cl)cc3)n(CCc3ccccc3)cc2n(C)c1=O | inactive: -6.77% | – |
| Cc1cc(C)c(Cn2c(=O)n(CCCC(=O)NCc3ccc4c(c3)OCO4)c(=O)c3sccc32)c(C)c1 | inactive: -6.43% | – |
| OCc1ccccn1 | inactive: -10.1% | – |
| CN(C(=O)c1c(O)c2ccccc2n(C)c1=O)c1ccccc1 | inactive: -5.47% | – |
| COc1ccc(N(C(=O)Cn2nnc3ccccc32)C(C(=O)NCc2ccccc2)c2ccc(F)cc2)cc1 (configuration not stated) | inactive: -12.1% | – |
| Cn1nnc2c(NCc3c(F)cccc3F)ncnc21 | inactive: -13.3% | – |
| COc1ccc(N2CCN(Cc3nc4c(c(=O)[nH]c(=O)n4C)n3Cc3ccccc3F)CC2)cc1 | inactive: -4.07% | – |

| SMILES | activity change, negative = inhibition | Potency |
| --- | --- | --- |
| COc1ccc(CCNC(=O)c2cc(=O)c3cc(C)c(C)cc3o2)cc1OC | inactive: -23.1% | – |
| Cn1c(=O)c2c(nc(SCC(=O)Nc3ccc(F)c(F)c3)n2Cc2ccccc2F)n(C)c1=O | inactive: -11.5% | – |
| O=C(NCCc1ccc(Cl)cc1)C1CCN(S(=O)(=O)c2ccc3[nH]ccc3c2)CC1 | inactive: -28.4% | – |
| COc1ccc(-c2noc(CNC(=O)COc3cccc(C)c3C)n2)cc1 | inactive: -2.86% | – |
| O=C(COCc1cc(-c2ccc3c(c2)OCO3)on1)Nc1cc(Cl)ccc1O | inactive: -4.13% | – |
| CCOC(=O)c1c(C)oc2nc(C)nc(NCCCN3CCN(c4cc(C)ccc4C)CC3)c12 | inactive: 9.25% | – |
| CC(C)c1ccc(Nc2c(-c3ccccn3)nc3ccccn23)cc1 | – | active: 25.1 µM |
| CC(NC(=O)c1ccc2c(c1)sc1nc(-c3ccc(F)cc3)cn12)C12CC3CC(CC(C3)C1)C2 (configuration not stated) | inactive: 7.03% | – |
| COc1cc(OC)c(NC(=O)CCc2c(C)nc3c4c(C)cc(C)nc4nn3c2C)cc1Cl | inactive: -0.907% | – |
| COc1cccc(/C=C/c2nc(C#N)c(N3CCN(C)CC3)o2)c1 | inactive: -4.11% | – |
| N#Cc1cc2c(=O)n3ccccc3nc2n(-c2nnc(SCc3ccccc3Cl)s2)c1=O | inactive: -10.7% | – |
| CCN(CCCNC(=O)Cn1ncc2c([nH]c3ccc(C)cc32)c1=O)c1ccccc1 | inactive: -1.68% | – |
| CCC(Sc1nc2n[nH]c(C)c2c(=N)n1-c1ccccc1Cl)C(=O)N(CC)CC (configuration not stated) | inactive: -9.83% | – |
| Cc1cccc(NC(=O)c2cc3c(=O)n(Cc4cccnc4)ccc3nc2C)c1 | inactive: -4.83% | – |
| CC1Cn2c(C(=O)NCc3ccccc3Cl)cc3cccc(c32)S1 (configuration not stated) | inactive: -19.6% | – |
| Cc1ccc(S(=O)(=O)NCCc2nnc3ccc(SCC(=O)Nc4ccc(F)cc4F)nn23)cc1 | inactive: 1.04% | – |
| CCOC(=O)Cn1c(=O)n(CC2CCCO2)c2nc(-c3cc(OC)ccc3OC)nc(C(N)=O)c21 (configuration not stated) | inactive: -13.8% | – |
| O=C(NCC(c1cccs1)S(=O)(=O)c1cccs1)c1c(F)cccc1F (configuration not stated) | inactive: -15.8% | – |
| CC(C)c1nn2c(=O)cc(COC(=O)c3ccc(NC(=O)c4cccs4)cc3)nc2s1 | inactive: -9.84% | – |
| COc1ccc(OC(=O)c2nc(SCc3ccccc3C)ncc2Cl)cc1 | inactive: 5.69% | – |
| Cc1ccccc1OCC(=O)Nc1ccccc1OCc1cc(=O)n2ccccc2n1 | inactive: 0.464% | – |
| COc1ccnc(CS(=O)c2nc3ccc(OC(F)F)cc3[nH]2)c1OC (configuration not stated) | inactive | – |
| COc1cccc(CSc2nc3n(n2)C(CC(C)C)C(C(=O)Nc2ccccc2C)=C(C)N3)c1 (configuration not stated) | inactive: -13.6% | – |
| COc1ccc(C(=O)Nc2cccc(C(=O)OCc3cc(=O)n4c5c(sc4n3)CCCC5)c2)cc1 | inactive: -18.5% | – |
| Cc1ccc(CCNC(=O)CCCc2nnc3n(C)c(=O)c4sccc4n23)cc1 | inactive: -3.02% | – |

| SMILES | activity change, negative = inhibition | Potency |
| --- | --- | --- |
| Cc1cc(C)c2c(CC(=O)Nc3cc(C(F)(F)F)ccc3Cl)coc2c1 | inactive: -18.5% | – |
| COc1ccccc1-n1c(=O)n(C)c2c(C(N)=O)nc(-c3cccc(OC)c3OC)nc21 | inactive: -16.2% | – |
| CCCN1CCc2nc(N3CCN(C)CC3)ncc2C1 | inactive: -19% | – |
| CCN(CC)c1nn2c(=O)c(C(=O)NCCc3cccc(C)c3)cnc2s1 | inactive: -16.2% | – |
| Fc1cccc(CSc2ccc(-c3cccs3)nn2)c1 | inactive: 51.3% | – |
| COc1ccc(S(=O)(=O)NCCc2csc3nc(-c4ccccc4)nn23)cc1OC | inactive: -16.1% | – |
| CCN1C(=O)C(O)(c2c[nH]c3ccccc23)c2cc(Br)ccc21 (configuration not stated) | inactive: -24.9% | – |
| Cc1cccc(Cn2c(=O)n(-c3ccccc3C)c(=O)c3c2c2cc(C)ccc2n3C)c1 | inactive: -6.48% | – |
| CCC(=O)N1c2ccccc2CC1C(=O)NCc1cc(Br)ccc1OC (configuration not stated) | inactive: 0.208% | – |
| Cc1ccc2oc3c(c(=O)c2c1)C(c1ccc(O)cc1)N(c1nc(C)c(C)s1)C3=O (configuration not stated) | inactive: -2.73% | – |
| CCC(=O)Nc1nnc(S(=O)(=O)N2c3ccccc3CC2C)s1 (configuration not stated) | inactive: -11.6% | – |
| CC(C)Cc1ccc(C(C)C(=O)O)cc1 (configuration not stated) | inactive | – |
| Cc1ccc(CNc2nc3ccccc3n3cnnc23)cc1 | inactive: -4.26% | – |
| COc1ccc(NC(=O)c2cnc(N3CCCC3)nc2)cc1OC | inactive: -13.1% | – |
| CCCC1=Nc2cc(C(=O)N3CCC(C(=O)OCC)CC3)ccc2Sc2ccccc21 | inactive: -18.3% | – |
| Cc1cc(C)c2oc(-c3cccc(NC(=O)c4ccc(-c5cccc([N+](=O)[O-])c5)o4)c3)nc2c1 | inactive: 6.24% | – |
| Cc1cccc(NC(=O)C2CCCN2S(=O)(=O)c2ccc3c(c2)n(C)c(=O)c(=O)n3C)c1 (configuration not stated) | inactive: -1.48% | – |
| O=C(NCc1cccc(F)c1)c1ccccc1NC(=O)c1nsc2ccccc12 | inactive: -1.64% | – |
| O=C(CCSCc1cccc(Cl)c1)NCCc1ccc(Cl)cc1 | inactive: -12% | – |
| CCc1ccc(C(=O)C(C)CN2CCCCC2)cc1 (configuration not stated) | inactive: 0.0991% | – |
| COc1ccc(-n2c(SCC(=O)NCc3ccc(F)cc3)nc3c([nH]c4ccccc43)c2=O)cc1 | inactive: -23% | – |
| COc1ccccc1CNC(=O)CCCCn1c(=O)c2ccccc2n(Cc2ccccc2F)c1=O | inactive: -2.77% | – |
| CC(=O)Nc1cccc(NC(=O)Cn2cnc3c(oc4ccccc43)c2=O)c1 | inactive: 1.69% | – |
| Cn1c(=O)n(C)c2cc(N3CCOCC3)c(NS(=O)(=O)c3cccc(C#N)c3)cc21 | inactive: 13.8% | – |
| Cc1nn2cc(-c3ccc(OC(C)C)cc3)nc2s1 | inactive: -38.9% | – |

| SMILES | activity change, negative = inhibition | Potency |
| --- | --- | --- |
| Cc1ccc(CCNC(=O)C2CCN(S(=O)(=O)c3ccc4c(ccn4C)c3)CC2)cc1 | inactive: -10.6% | – |
| Cc1ccc(-c2nc3c4c(-c5ccccc5)c(-c5ccccc5)oc4ncn3n2)cc1 | inactive: -6.77% | – |
| Cc1ccc(CNC(=O)CSc2nc3ccccc3nc2Cc2ccc(C)cc2)cc1 | inactive: 0.918% | – |
| CCOc1ccc(NC(=O)c2c(C)oc3nc(C)nc(N4CCOCC4)c23)cc1 | inactive: 4.82% | – |
| Cc1cccc(-c2nc3c(cnn3-c3ccccc3)c(=O)n2-c2ccc(Cl)cc2)c1 | inactive: -9.03% [at 11.5 µM] | – |
| COc1ccc(NC(=O)CSc2nc(C)cc(C)c2C(=O)Nc2ccccc2OC)cc1 | inactive: -21.5% | – |
| COc1ccc(CNC(=O)Cn2nnc(-c3ccc(C(F)(F)F)cc3)n2)cc1 | inactive: 17.6% | – |
| O=c1cc(-c2ccccc2)n2c(SCc3ccc(Cl)cc3)nnc2[nH]1 | inactive: -13.4% | – |
| COc1ccc(-n2c3c(cc(-c4nc(-c5ccc(C)cc5)cs4)c2=O)C(=O)CC(C)(C)C3)cc1 | inactive: 1.07% | – |
| CC(C)C(=O)NCC(c1ccc2c(c1)OCO2)N1CCN(c2ccccc2F)CC1 (configuration not stated) | inactive: -19.3% | – |
| COc1ccccc1C(=O)Nc1ccc2oc(-c3cccc(Cl)c3Cl)nc2c1 | inactive: 5.51% | – |
| Cc1sc2c(c1C)c(=O)n(-c1ccc(Cl)cc1)c(=O)n2Cc1cc(=O)n2ccccc2n1 | inactive: -11.9% | – |
| O=c1[nH]cnc2c1ncn2[C@@H]1O[C@H](CO)[C@@H](O)[C@H]1O | inactive: 3.57% | – |
| CC1CCCN(C(=O)c2cc3c(=O)n(C)c4ccccc4c3s2)C1 (configuration not stated) | inactive: 4.72% | – |
| COc1ccc(C2C(C(N)=O)=C(C)Nc3nc(SCc4ccccc4Cl)nn32)cc1OC (configuration not stated) | inactive: -9.82% | – |
| CCOc1ccc(C(=O)NCc2nc3cccnc3n2Cc2ccc(F)cc2)cc1OCC | inactive: -6.55% | – |
| CCOC(=O)c1ccccc1NC(=O)CSc1nc2ccncc2[nH]1 | inactive: -24.4% | – |
| CCOC(=O)CNc1nc(Oc2ccc(=O)n(C)n2)nc(N(CC)CC)n1 | inactive: -27.2% | – |
| CCC(=O)Nc1cc(-c2cccc(C)c2)nn1-c1ccccc1 | inactive: -12.4% | – |
| Cc1cccc(-c2nc(SCC(=O)N3CCc4ccccc43)c3c(=O)n(C)c(=O)n(C)c3n2)c1 | inactive: -5.71% | – |
| COc1ccc(N2CCN(Cc3nc4c(c(=O)[nH]c(=O)n4C)n3Cc3ccc(Cl)cc3)CC2)cc1 | inactive: -18.1% | – |
| COc1cccc2c1ncc1c(-c3ccc(C)cc3)nn(-c3cccc([N+](=O)[O-])c3)c12 | inactive: -21.6% | – |
